Laboratory results reported in PubChem BioAssay AID504333 (National Center for Advancing Translational Sciences (NCATS), 2011).
Out of some 360,000 compounds screened, about 16,000 (4.4%) were called active. The shares of active, inactive and inconclusive entries below differ from those in the screen. Calls follow the shape of the dose curve; as a rule, active = well fitted inhibition curve with a large enough effect; inconclusive = small, poorly fitted or top-dose-only effect; inactive = no such curve, though single readings can be large or run the other way. Potencies of inconclusive entries are doubtful fits and often do not repeat.

target: Bromodomain adjacent to zinc finger domain protein 2B (Homo sapiens) (UniProt Q9UIF8); assay: qHTS Assay for Inhibitors of BAZ2B; conditions: AlphaScreen BAZ2B-H3K14Ac peptide displacement; activity change, negative = inhibition: at 114 µM (top of the series); also: nearly all actives have a fitted effect of over 60% in size
Text: BAZ2B (bromodomain adjacent to zinc finger domain, 2B) belongs to a family of ubiquitously expressed bromodomain containing proteins, which biological function has not yet been elucidated. […] The interaction of BAZ2B with ISWI mediated by the BAZ1 motif has recently been described. […] The protocol is based on the AlphaScreen (PerkinElmer) displacement assay developed by NCGC [5], but uses the peptide ligand Biot-H3K14Ac, a high affinity binding partner for BAZ2B, in an AlphaScreen format. Although AlphaScreen has significant advantages with its utility in a variety of epigenetic target assays, the primary screening data provided in this deposition should be used with caution due to the prevalence of screening artifacts. The top compound concentration tested was 110uM in this assay, which increases number of actives and potential artifacts. An AlphaScreen counterscreen is highly recommended to be run against any putative actives to eliminate non-specific artifacts. Alternatively, one can use other AlphaScreen assays in PubChem to filter out promiscuous hits. Eberharter, A. et al. ACF1 improves the effectiveness of nucleosome mobilization by ISWI through PHD-histone contacts. The EMBO journal 23, 4029-4039. 2004. PMID: 15457208 [2] Jones, M.H. et al. A novel family of bromodomain genes. Genomics 63, 40-45. 2000. PMID: 10662543 [3] Yasgar, et al. Compound Management for Quantitative High-Throughput Screening. JALA. 2008 Apr;13(2):79-89. PMID: 18496600 [4] Inglese, et al. Quantitative high-throughput screening: a titration-based approach that efficiently identifies biological activities in large chemical libraries. Proc Natl Acad Sci. 1;103(31):11473-8. 2006. PMID: 16864780 [5] Quinn et al. A chemiluminescence-based method for identification of histone lysine methyltransferase inhibitors. Mol Biosyst 6(5): 782-8. 2010. PMID: 20567762 [6] Baell,Holloway. New substructure filters for removal of pan assay interference compounds (PAINS) from screening libraries and for their exclusion in bioassays. J Med Chem. 53(7):2719-40. 2010. PMID: 20131845 NIH Molecular Libraries Probe Production Network [MLPCN] NIH Chemical Genomics Center [NCGC] Structural Genomics Consortium (SGC) NIH Grant: 5U54 MH084681-02
To each well of a 1,536w plate, 2ul of BAZ2B protein (final 50nM) and 1ul biotinylated histone peptide acetylated at Lys14 [b-H3(5-23)K14Ac] (final 50nM) were added in 1x PBS buffer, pH 7.4, containing 0.01% Tween-20, using a nanoliter dispenser. Formation of a protein-peptide complex proceeded at room temperature for 30 min. A Kalypsys pin-tool was employed to transfer 23 nL of library compound solution in DMSO to each well. Following a 30 min incubation of the protein-peptide complex with compounds at room temperature, a mixture of 40 ug/mL each streptavidin-coated donor and nickel chelate acceptor AlphaScreen beads (final 10 ug/mL) were added in a 1ul dispense for a final volume of 4ul. A brief centrifugation followed (1000rpm, 1 min) and were then incubated protected from the light for 20 min at room temperature. Plates were read on an EnVision multilabel plate reader using the 1,536 plate HTS AlphaScreen aperture (excitation time 80 ms, measurement time 240 ms).
% is scaled to controls: 0 for no effect and ±100 for the full control effect; potency is read from the fitted curve at half-maximal effect; tags tell the direction and shape of the fitted curve.

Sequence of UniProt Q9UIF8 (Q9UIF8 whole entry, looked up, the tested form may be a part): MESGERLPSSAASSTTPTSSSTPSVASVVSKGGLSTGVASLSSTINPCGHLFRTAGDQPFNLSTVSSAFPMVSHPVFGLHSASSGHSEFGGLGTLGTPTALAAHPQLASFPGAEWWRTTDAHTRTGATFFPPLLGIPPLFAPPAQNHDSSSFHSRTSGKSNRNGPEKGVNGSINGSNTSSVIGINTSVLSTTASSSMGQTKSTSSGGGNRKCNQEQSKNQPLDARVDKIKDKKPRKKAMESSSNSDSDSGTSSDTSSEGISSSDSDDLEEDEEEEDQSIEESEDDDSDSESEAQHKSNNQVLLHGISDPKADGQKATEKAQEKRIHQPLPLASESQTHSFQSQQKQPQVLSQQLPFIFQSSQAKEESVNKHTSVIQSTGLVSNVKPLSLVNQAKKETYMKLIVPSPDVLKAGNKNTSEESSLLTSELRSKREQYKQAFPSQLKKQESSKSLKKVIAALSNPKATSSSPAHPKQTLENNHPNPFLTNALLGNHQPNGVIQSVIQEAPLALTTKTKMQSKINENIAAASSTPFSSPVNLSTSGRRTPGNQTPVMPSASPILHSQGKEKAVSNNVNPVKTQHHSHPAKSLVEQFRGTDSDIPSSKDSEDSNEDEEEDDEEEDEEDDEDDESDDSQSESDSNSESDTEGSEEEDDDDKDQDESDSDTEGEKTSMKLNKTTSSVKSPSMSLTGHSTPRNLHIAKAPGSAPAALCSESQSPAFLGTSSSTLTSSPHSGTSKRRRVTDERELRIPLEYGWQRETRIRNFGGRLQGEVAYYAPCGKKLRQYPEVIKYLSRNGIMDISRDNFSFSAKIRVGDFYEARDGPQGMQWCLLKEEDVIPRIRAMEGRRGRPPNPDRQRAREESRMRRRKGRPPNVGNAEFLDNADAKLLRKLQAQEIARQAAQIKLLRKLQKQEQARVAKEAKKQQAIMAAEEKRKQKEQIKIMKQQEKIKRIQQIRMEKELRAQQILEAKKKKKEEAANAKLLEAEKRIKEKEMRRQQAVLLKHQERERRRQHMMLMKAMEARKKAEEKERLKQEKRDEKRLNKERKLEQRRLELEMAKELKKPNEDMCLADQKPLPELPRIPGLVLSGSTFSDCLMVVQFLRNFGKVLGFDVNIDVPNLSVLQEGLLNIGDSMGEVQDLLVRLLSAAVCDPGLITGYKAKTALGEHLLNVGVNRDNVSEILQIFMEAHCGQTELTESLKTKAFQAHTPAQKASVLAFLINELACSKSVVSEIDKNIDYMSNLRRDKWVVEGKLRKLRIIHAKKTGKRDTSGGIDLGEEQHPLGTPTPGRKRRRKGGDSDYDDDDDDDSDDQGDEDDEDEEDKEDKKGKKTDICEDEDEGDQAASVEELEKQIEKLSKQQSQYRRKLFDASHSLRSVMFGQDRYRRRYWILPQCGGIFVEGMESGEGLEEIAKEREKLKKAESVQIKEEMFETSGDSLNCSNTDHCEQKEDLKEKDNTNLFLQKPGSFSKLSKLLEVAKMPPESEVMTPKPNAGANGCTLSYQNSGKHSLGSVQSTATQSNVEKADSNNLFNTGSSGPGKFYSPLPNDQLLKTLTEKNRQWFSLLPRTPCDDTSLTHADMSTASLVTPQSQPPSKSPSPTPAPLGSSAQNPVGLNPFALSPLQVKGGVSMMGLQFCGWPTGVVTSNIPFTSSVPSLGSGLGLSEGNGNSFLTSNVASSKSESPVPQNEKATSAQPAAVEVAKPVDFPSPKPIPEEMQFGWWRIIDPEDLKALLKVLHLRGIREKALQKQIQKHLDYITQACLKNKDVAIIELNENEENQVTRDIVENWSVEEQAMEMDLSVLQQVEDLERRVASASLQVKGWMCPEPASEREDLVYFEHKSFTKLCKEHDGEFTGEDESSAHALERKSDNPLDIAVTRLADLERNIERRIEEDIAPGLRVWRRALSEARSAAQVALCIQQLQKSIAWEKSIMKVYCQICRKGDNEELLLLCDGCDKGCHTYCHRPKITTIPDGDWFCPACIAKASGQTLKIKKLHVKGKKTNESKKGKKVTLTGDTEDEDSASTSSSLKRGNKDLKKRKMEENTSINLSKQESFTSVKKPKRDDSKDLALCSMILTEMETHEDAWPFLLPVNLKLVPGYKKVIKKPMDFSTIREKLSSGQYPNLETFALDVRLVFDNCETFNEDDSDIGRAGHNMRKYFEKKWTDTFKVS

| SMILES | Potency | activity change, negative = inhibition |
| --- | --- | --- |
| Cc1cc(C)cc(NC(=O)CSc2nc(-c3cccc(Cl)c3)nc3c2Cc2c(CO)cnc(C)c2O3)c1 | active: 50.1 µM |  |
| O=C1CN(C(=O)c2ccc(Br)o2)C(c2ccccc2)c2cc(Br)ccc2N1 (configuration not stated) | inconclusive: 44.7 µM [inhibitor, partial curve] |  |
| C#CCOCCOCCOCCNc1nc(N2CCN(C(=O)CCCCCCCCCCNC(=O)[C@@H](CCSC)n3cc(CCO)nn3)CC2)nc(N2CCN(C(=O)CCCCCCCCCCNC(=O)[C@H]([C@@H](C)CC)n3cc(CCCCCN)nn3)CC2)n1 | inconclusive: 89.1 µM [inhibitor, single point] |  |
| COc1ccc2nc(SCC(=O)Nc3nccs3)[nH]c2c1 | inconclusive: 89.1 µM [inhibitor, single point] |  |
| Cc1cc(C)cc(N(CC(=O)NC(C)(C)C)C(=O)CCC(=O)Nc2ccccn2)c1 | inconclusive: 89.1 µM [inhibitor, single point] |  |
| COc1ccc(Cl)cc1NC(=O)CSc1nccn1Cc1ccco1 | inconclusive: 39.8 µM [inhibitor, partial curve] |  |
| CCNc1ccc(C(=O)NN=C2CCCC2)cc1[N+](=O)[O-] | inconclusive: 63.1 µM [inhibitor, partial curve] |  |
| O=C(CSc1nc2ccccc2c(=O)n1Cc1ccccc1)Nc1ccc(Br)cc1C(=O)O | active: 50.1 µM |  |
| COc1cc(C(=O)Nc2ccc3c(c2)OCO3)ccc1OCc1c(C)noc1C | inconclusive: 79.4 µM [inhibitor, single point] |  |
| CCc1nnc(NS(=O)(=O)c2ccc(N/C=C\C(=O)c3cccc4ccccc34)cc2)s1 | inconclusive: 35.5 µM [inhibitor, full curve] |  |
| Cc1ccc(C(=O)Nc2ccc3c(c2)OCO3)cc1NC(=O)c1ccco1 | inconclusive: 89.1 µM [inhibitor, single point] |  |
| Cc1ccccc1NC1=NCC(c2ccc([N+](=O)[O-])cc2)S1 (configuration not stated) |  | inactive: -30.3% |
| CCN(CC)c1ccc(N=Cc2c(C)[nH]c3ccccc23)cc1 | active: 12.6 µM |  |
| CCOC(=O)CSC1=C(C#N)C(c2ccccc2OCC)C(C#N)C(=O)N1 (configuration not stated) |  | inactive: -24.9% |
| CCN1CCN(c2cc3c(cc2F)c(=O)c(C(=O)O)cn3C2CC2)CC1 | inconclusive: 79.4 µM [inhibitor, single point] |  |
| Cc1ccc(C2(c3noc(CN4CCC(c5ccncc5)CC4)n3)CCCC2)cc1 | inconclusive: 79.4 µM [inhibitor, single point] |  |
| CC(C)N1C(=O)/C(=C\c2nc3ccccc3c(=O)[nH]2)c2ccccc21 | active: 31.6 µM |  |
| COc1cn(-c2ccccc2)nc1C(=O)Nc1ccc(C)cc1 |  | inactive: -4.14% |
| Cc1ccc(C(=O)Nc2c(C(=O)NCc3ccc(Cl)cc3)sc3nc(C)cc(C)c23)cc1 | inconclusive: 89.1 µM [inhibitor, single point] |  |
| O=C1Nc2ccc(Br)cc2C1(O)c1ccc(F)cc1 (configuration not stated) |  | inactive: 0.874% |
| CCOC(=O)c1cc(S(=O)(=O)N2CCN(c3ccc(OC)cc3)CC2)[nH]n1 |  | inactive: -24.8% |
| COC(=O)c1ccc(C2NC(=O)CCC2[N+](=O)[O-])cc1 (configuration not stated) |  | inactive: -1.72% |
| Cn1c2c(c(=O)[nH]c1=O)C(c1cccc(O)c1)C1=C(N2)c2ccccc2C1=O (configuration not stated) | inconclusive: 50.1 µM [inhibitor, partial curve] |  |
| CCN(CC)CCN(C(=O)c1ccc(S(=O)(=O)N(CC)c2ccccc2)cc1)c1nc2c(OC)ccc(OC)c2s1 |  | inactive: 6.69% |

| SMILES | Potency | activity change, negative = inhibition |
| --- | --- | --- |
| CCN(C(=O)c1oc2ccc(S(=O)(=O)N3CCCCCC3)cc2c1C)c1ccccc1 |  | inactive: 24% |
| CC(=O)Nc1ccc(Sc2ncnc3scc(-c4ccccc4)c23)cc1 | inconclusive: 79.4 µM [inhibitor, single point] |  |
| CNC(=S)N/N=C/c1cn(Cc2ccc(C)cc2)c2ccccc12 | inconclusive: 39.8 µM [inhibitor, partial curve] |  |
| CC(C)Oc1cccc(C(=O)NC(=S)Nc2ccc3c4c(cccc24)CC3)c1 | inconclusive: 25.1 µM [inhibitor, full curve, poor fit] |  |
| CCN(CC)S(=O)(=O)c1cc(NC(=O)C(C)OC(=O)c2[nH]c(C)c(C(C)=O)c2C)ccc1C (configuration not stated) | inconclusive: 50.1 µM [inhibitor, partial curve] |  |
| N#C/C(=C(/O)c1cccs1)c1nnc2n1CCCCC2 | inconclusive: 70.8 µM [inhibitor, single point] |  |
| Cc1cc(-c2ccc(C)c(S(=O)(=O)N3CCN(c4cccc(C(F)(F)F)c4)CC3)c2)on1 |  | inactive: 2.72% |
| O=S(=O)(Nc1nccs1)c1ccc2c(c1)OCCO2 | inconclusive: 89.1 µM [inhibitor, single point] |  |
| Cc1nc2cc(-c3ccsc3-n3c(C)ccc3C)[nH]n2c(=O)c1Cl | active: 50.1 µM |  |
| CN(C)c1ccc(-c2nc(-c3cc4cc(Cl)ccc4oc3=O)cs2)cc1 |  | inactive: -0.683% |
| Cc1ccc(Oc2c(C(F)(F)F)oc3c(CN4CCC(C)CC4)c(O)ccc3c2=O)cc1 |  | inactive: 4.54% |
| O=C(/C=C/c1cccc(O)c1)c1ccc(N2CCOCC2)cc1 |  | inactive: -34.6% |
| CCN1CCN(c2c(C=O)c(Cl)nc3ccc(OC)cc23)CC1 |  | inactive: -11.4% |
| COc1ccc(NC(=O)c2ccc(-c3nn(C)c(=O)c4ccccc34)cc2)cc1C(N)=O |  | inactive: -16.7% |
| Cc1cccc(NC(=O)CSc2ncc3c(n2)-c2ccccc2N(Cc2ccc(F)cc2)S3(=O)=O)c1C | inconclusive: 89.1 µM [inhibitor, single point] |  |
| COc1cccc(S(=O)(=O)N2CCN(C(=O)c3ccco3)CC2)c1 | inconclusive: 79.4 µM [inhibitor, partial curve] |  |
| CCC(C)NC(=O)c1cc(-c2cccc(OC)c2)on1 (configuration not stated) |  | inactive: 14.9% |
| Cc1cc(S(=O)(=O)NCCN2CCOCC2)ccc1Cl |  | inactive: -2.04% |
| CCOc1ccc(NC(=O)COC(=O)CCN2C(=O)C3CC=CCC3C2=O)cc1OCC (configuration not stated) | inconclusive: 44.7 µM [inhibitor, partial curve] |  |
| O=C(NNc1cc(Br)c(O)c(Br)c1)c1ccccc1 | active: 8.91 µM |  |
| CCOc1ccc(Br)cc1S(=O)(=O)Nc1ccccc1N1CCOCC1 |  | inactive: -4.33% |
| COCCCNc1oc(/C=C/c2cc(OC)c(OC)c(OC)c2)nc1C#N |  | inactive: -0.294% |
| COC(=O)c1ccc(-c2n[nH]c(=O)c3ccccc23)cc1 |  | inactive: 11.4% |
| CCC(C(=O)Nc1cc(OC)cc(OC)c1)n1nc(-c2ccc(C)c(C)c2)ccc1=O (configuration not stated) | inconclusive: 79.4 µM [inhibitor, single point] |  |

| SMILES | Potency | activity change, negative = inhibition |
| --- | --- | --- |
| O=C(CCc1c[nH]c2ccccc12)N1CCCCCCC1 | inconclusive: 89.1 µM [inhibitor, partial curve] |  |
| NC(=O)CN1CCN(S(=O)(=O)c2ccc(Cl)cc2)CC1 |  | inactive: -1.67% |
| O=C(CCc1nc(CN2CCN(S(=O)(=O)c3ccc(Cl)cc3)CC2)no1)N1CCCCC1 | inconclusive: 89.1 µM [inhibitor, single point] |  |
| Cc1[nH]n(-c2cccc(Cl)c2)c(=O)c1-c1ccccc1 | inconclusive: 89.1 µM [inhibitor, single point] |  |
| O=C(CSCc1cccc(F)c1)NCc1ccccc1 | inactive |  |
| COC(=O)c1c(N2C(=O)[C@H]3[C@@H](C2=O)[C@]2(C(=O)Nc4c(C)cccc42)N2CCC[C@@H]32)sc(C)c1C | inconclusive: 89.1 µM [inhibitor, single point] |  |
| CC(NC(=O)c1nn(C)c(=O)c2ccccc12)c1ccc(F)cc1 (configuration not stated) | inconclusive: 89.1 µM [inhibitor, single point] |  |
| CCOc1[nH]n(-c2ccccc2)c(=O)c1C=Nc1ccc(OC)cc1 | inconclusive: 39.8 µM [inhibitor, partial curve] |  |
| Cc1ccc(S(=O)(=O)Nc2cc3c(cc2NCc2ccccc2)n(C)c(=O)n3C)c(C)c1 | active: 50.1 µM |  |
| CC1CCN(CCCOc2ccc(Cl)cc2Br)CC1 | inconclusive: 79.4 µM [inhibitor, partial curve] |  |
| O=C(OCC(=O)N1CCOCC1)c1ccc2[nH]c3c(c2c1)CCCC3 | inconclusive: 89.1 µM [inhibitor, single point] |  |
| CC(=O)c1cccc(NC(=O)Cn2nc(C)n3cccc3c2=O)c1 |  | inactive: -21.1% |
| O=C1OCCC1Sc1nc2ccccc2s1 (configuration not stated) | inconclusive: 89.1 µM [inhibitor, single point] |  |
| Cc1cc(-c2ccccc2)nc2[nH]n(-c3ccccc3)c(=O)c12 | inconclusive: 89.1 µM [inhibitor, single point] |  |
| O=C(O)C1CCC(N2C(=O)C3CCCCC3C2=O)CC1 (configuration not stated) | inconclusive: 89.1 µM [inhibitor, single point] |  |
| COc1ccc(-c2nc(CS(=O)CC(=O)NC3CCCC(C)C3C)c(C)o2)cc1OC (configuration not stated) |  | inactive: -4.08% |
| COc1cc(NC(=O)COc2cc(O)c3c(c2)OC(C)(C)CC3=O)cc(OC)c1OC |  | inactive: -34.1% |
| Cc1cccc(OCCn2ccnc2)c1C |  | inactive: -1.79% |
| C=CCN1CCN(C(c2ccccc2OC)c2nnnn2C(C)(C)C)CC1 (configuration not stated) | inconclusive: 79.4 µM [inhibitor, single point] |  |
| O=C(N1CCN=C1SCc1cccnc1)C12CC3CC(CC(C3)C1)C2 | inconclusive: 89.1 µM [inhibitor, single point] |  |
| Cc1ccc(C)c(SCc2noc(C(=O)NC(C)C)c2C(=O)O)c1 | inconclusive: 79.4 µM [inhibitor, single point] |  |
| Oc1ccc2ccccc2c1-c1sc(Nc2ccccc2)n[n+]1-c1ccc(F)cc1 | inconclusive: 89.1 µM [inhibitor, single point] |  |
| Cc1ccc(CNCC(=O)Nc2ccc(N3CCOCC3)cc2)cc1 | active: 35.5 µM |  |
| CC(=O)c1sc(NC(=O)C2(F)C(F)(F)C(F)(F)C(F)(F)C(F)(F)C2(F)F)nc1C | inconclusive: 79.4 µM [inhibitor, single point] |  |
